# Measurements from paper PMC9911399, “Two distinct binding modes provide the RNA-binding protein RbFox with extraordinary sequence specificity”.
# Positions count from the first letter of the chain named. This is one part of the list.
# T1: RBFOX1 RRM RbFoxmut (Fox-RRM*) (Homo sapiens, UniProt Q9NWB1 109-208, R118D;E147R;N151S;E152T)
# T1 sequence: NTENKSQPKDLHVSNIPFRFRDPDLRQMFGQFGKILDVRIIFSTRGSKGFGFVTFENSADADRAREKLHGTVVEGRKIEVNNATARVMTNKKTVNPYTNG
# B1: GCAGAAA (DNA:RNA)
# RNA: GGGAGACCGGAAUUCAGAUUGUCCGCAGAAAUUAAAUCCCGUCGUAGCCACCA
# DNA 1: CAATCTGAATTCCGGTCTCCC
# DNA 2: TGGTGGCTACGACGGGATT
# B2: AUGUUGG (DNA:RNA)
# RNA: GGGAGACCGGAAUUCAGAUUGUCCAUGUUGGUUAAAUCCCGUCGUAGCCACCA
# DNA 1: CAATCTGAATTCCGGTCTCCC
# DNA 2: TGGTGGCTACGACGGGATT
# B3: UACCUUU (DNA:RNA)
# RNA: B2 RNA with A25U, U26A, G27C, U28C, G30U, G31U
# DNA 1: CAATCTGAATTCCGGTCTCCC
# DNA 2: TGGTGGCTACGACGGGATT
# B4: CAACUAU (DNA:RNA)
# RNA: B1 RNA with G25C, C26A, G28C, A29U, A31U
# DNA 1: CAATCTGAATTCCGGTCTCCC
# DNA 2: TGGTGGCTACGACGGGATT
# B5: AAAACCG (DNA:RNA)
# RNA: B2 RNA with U26A, G27A, U28A, U29C, G30C
# DNA 1: CAATCTGAATTCCGGTCTCCC
# DNA 2: TGGTGGCTACGACGGGATT
# B6: CUCAAAU (DNA:RNA)
# RNA: B1 RNA with G25C, C26U, A27C, G28A, A31U
# DNA 1: CAATCTGAATTCCGGTCTCCC
# DNA 2: TGGTGGCTACGACGGGATT
# B7: CACGUUA (DNA:RNA)
# RNA: B1 RNA with G25C, C26A, A27C, A29U, A30U
# DNA 1: CAATCTGAATTCCGGTCTCCC
# DNA 2: TGGTGGCTACGACGGGATT
# B8: CGAGGCA (DNA:RNA)
# RNA: B1 RNA with G25C, C26G, A29G, A30C
# DNA 1: CAATCTGAATTCCGGTCTCCC
# DNA 2: TGGTGGCTACGACGGGATT
# B9: GACUUAG (DNA:RNA)
# RNA: B2 RNA with A25G, U26A, G27C, G30A
# DNA 1: CAATCTGAATTCCGGTCTCCC
# DNA 2: TGGTGGCTACGACGGGATT
# Target: T1, RBFOX1 RRM RbFoxmut (Fox-RRM*)
# Assay: EMSA; HiTS-Eq, 1 nM pool, 10 min; buffer printed only for the single-RNA assays: 10 mM Tris pH 7.5, 150 mM NaCl, 3.4 mM EDTA, 0.001% NP-40, 30 C
# Conditions: tags: His6 N-terminal (pET28a); label: 5' 32P
# How it was run: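 Purified RbFox RRM, wild type or mutant, was incubated for 10 min in 50 µL with 1 nM of a 5′-radiolabelled RNA pool carrying 7 randomized nucleotides, whose flanks were annealed to DNA oligonucleotides, over a series of increasing protein concentrations. Unbound RNA was resolved on 8% native PAGE, cut out, reverse-transcribed, barcoded by PCR and sequenced on an Illumina HiSeq 2500. Relative association constants were derived from changes in read counts for each RNA species versus the control reaction and normalised to the cognate motif.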
row,Binder,binding signal
1,B1,0.0723 KA relative to UGCAUGU
2,B2,0.123 KA relative to UGCAUGU
3,B3,0.0784 KA relative to UGCAUGU
4,B4,0.0777 KA relative to UGCAUGU
5,B5,0.103 KA relative to UGCAUGU
6,B6,0.0869 KA relative to UGCAUGU
7,B7,0.139 KA relative to UGCAUGU
8,B8,0.131 KA relative to UGCAUGU
9,B9,0.0869 KA relative to UGCAUGU
